For orientation: stoichiometry N means a count of units in the complex or per binding partner.

Data on 1 protein can be found in article PMC7256200, “Identifying a Molecular Mechanism That Imparts Species-Specific Toxicity to YoeB Toxins” (Frontiers in Microbiology, 2020).

The data set deals with the molecule itself. Description: SEC-MALS; Separately purified proteins; Superdex 200 Increase 10/30 GL, 25 mM HEPES pH 7.5, 150 mM NaCl, room temperature; monomer to dimer.

B1: His-AtYefM antitoxin (Atu2018) from Agrobacterium tumefaciens, pET15b construct, His tag kept (natural protein)
chain: MANVRFTEFRQNFATHFDRVLETRAPLLVTRQGKEAVVVLAEGEYESMQETLHLLSNPANASRLRASMGELERGDTIERDPTEE
notes: Cloned into pET15b; source: E. coli BL21 (DE3), purified (NiNTA, Superdex 75)
In the case of B1, the “stoichiometry N” value turned out to be 2.
